Experimental data as given in the supplement of paper PMC12645437, “Orthogonal IMiD-Degron Pairs Induce Selective Protein Degradation in Cells” (ACS Chemical Biology, 2025).
This is one part of the list.

B1: Q9UKT9 (peptide)
chain: LHCPICGFMCTQKGNLLRHIKL
B2: Q9UKT9 (peptide)
chain: FCCDQCGAFFTQKGNLLRHIKL
B3: Q9UKT9 (peptide)
chain: FWCEICGRRFTQKGNLLRHIKL
B4: Q9UKT9 (peptide)
chain: FYCPICGAQFTQKGNLLRHIKL
B5: Q9UKT9 (peptide)
chain: FQCNQCGHAFTQKGNLLRHIKL
B6: Q9UKT9 (peptide)
chain: FRCEICGHRFTQKGNLLRHIKL
B7: Q9UKT9 (peptide)
chain: FECPICGRTFTQKGNLLRHIKL
B8: Q9UKT9 (peptide)
chain: FRCEICGRRFTQKGNLLRHIKL
B9: Q9UKT9 (peptide)
chain: FDCNQCGRNFTQKGNLLRHIKL
B10: Q9UKT9 (peptide)
chain: FDCNQCGRWFTQKGNLLRHIKL
B11: Q9UKT9 (peptide)
chain: FSCDICGALFTQKGNLLRHIKL
B12: Q9UKT9 (peptide)
chain: FACEICGHIFTQKGNLLRHIKL
B13: Q9UKT9 (peptide)
chain: FMCEICGHEFTQKGNLLRHIKL
B14: Q9UKT9 (peptide)
chain: FTCNVCGADFTQKGNLLRHIKL

Biological target: no compound (DMSO)
Assay: log2 fold change of degron read counts, EGFP-low vs EGFP+ sorted cells; higher = lower degron-EGFP level without compound (poor expression or instability)
Settings: compound: DMSO control; 18 h
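Note: jurkat cells carrying a lentiviral library of mutant zinc finger degrons fused to EGFP plus mCherry, mCherry+ cells FACS sorted, degron abundance counted by next-generation sequencing.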

| Sequence | log2 fold change of degron read counts |
| --- | --- |
| B1 | 0.894 |
| B2 | -0.577 |
| B3 | -0.556 |
| B4 | 0.0761 |
| B5 | -1.33 |
| B6 | -0.865 |
| B7 | -0.0208 |
| B8 | -0.727 |
| B9 | 0.477 |
| B10 | 1.89 |
| B11 | -1.6 |
| B12 | -0.644 |
| B13 | -2.53 |
| B14 | -1.12 |
